In PubChem BioAssay AID262 (DTP/NCI, 2004):
For part of its entries the source gives two or more results. This list holds those alone. There may be further records. The records of an entry differ, and nothing given here explains why; dose, time, organism, isomer or construct need not be as stated for each record.

Test system: LX-1 lung xenograft sc, nude mice, tumor weight
Test: NCI In Vivo Anticancer Drug Screen. Data for tumor model Human Lung LX-1 Xenograft (subcutaneous) in NU/NU Swiss (nude) mice
Conditions: endpoint: optimum tumor weight change, schedule: Q04DX003 (ip), higher = larger tumour
Protocol: The antitumor activity of compounds was measured in mice bearing transplantable tumors. Survival or tumor size were measured and the results are expressed as the measurement made in the treated group (T) divided by the measurement made in the vehicle treated control group (C). The tumor model used in this assay is Human Lung LX-1 Xenograft (subcutaneous) in NU/NU Swiss (nude) mice

[1] = dose: 100.0 mg/kg/injection, vehicle: Klucel (hydroxypropylcellulose) (HPC)
[2] = dose: 200.0 mg/kg/injection, vehicle: suspension in saline

CCN(C)N=Nc1ccc(C(N)=O)cc1
T/C [1]: -44 % of control and -18 % of control

Cc1c(N)nc([C@H](CC(N)=O)NC[C@H](N)C(N)=O)nc1C(=O)N[C@H](C(=O)N[C@H](C)[C@@H](O)[C@H](C)C(=O)N[C@H](C(=O)NCCc1nc(-c2nc(C(=O)NCCC[S+](C)C)cs2)cs1)[C@@H](C)O)C(OC1OC(CO)C(O)C(O)C1OC1OC(CO)C(O)C(OC(N)=O)C1O)c1cnc[nH]1 (stereo not given in full)
T/C (dose: 7.5 mg/kg/injection, vehicle: saline): 39 % of control and 67 % of control
T/C (dose: 8.0 mg/kg/injection, vehicle: saline): 30 % of control, 66 % of control, 73 % of control
T/C (dose: 15.0 mg/kg/injection, vehicle: saline): 35 % of control and 79 % of control
T/C (dose: 32.0 mg/kg/injection, vehicle: saline): 29 % of control and 57 % of control

CN(C)N=Nc1cn[nH]c1C(N)=O
T/C [1]: -80 % of control, -72 % of control, 56 % of control

CC(CN1CC(=O)NC(=O)C1)N1CC(=O)NC(=O)C1 (stereo not given)
T/C [2]: 63 % of control and 91 % of control

CCc1ccccc1N1CCN(C(=O)c2cc(OC)c(OC)c(OC)c2)CC1
T/C (dose: 12.5 mg/kg/injection, vehicle: Klucel (hydroxypropylcellulose) (HPC)): 70 % of control, 81 % of control, 153 % of control
T/C (dose: 50.0 mg/kg/injection, vehicle: Klucel (hydroxypropylcellulose) (HPC)): 61 % of control, 77 % of control, 101 % of control

N=c1ccn2c(n1)OC1C(O)C(CO)OC12 (stereo not given)
T/C [2]: 53 % of control and 80 % of control
